# Assay results reported in PMC4336329 (PLoS ONE, 2015).
# Screen size: about 310,000 compounds; about 2,200 (0.71%) showed an effect of 50% or more. The effect is printed as a negative number. The list shows a part of the results.
# Molecular target: human ether-à-go-go-related gene (hERG) potassium channel (human, UniProt Q12809)
# Test: primary screen, population patch clamp on CHO cells stably expressing hERG
# human ether-à-go-go-related gene (hERG) potassium channel, sequence (Q12809 whole entry, looked up): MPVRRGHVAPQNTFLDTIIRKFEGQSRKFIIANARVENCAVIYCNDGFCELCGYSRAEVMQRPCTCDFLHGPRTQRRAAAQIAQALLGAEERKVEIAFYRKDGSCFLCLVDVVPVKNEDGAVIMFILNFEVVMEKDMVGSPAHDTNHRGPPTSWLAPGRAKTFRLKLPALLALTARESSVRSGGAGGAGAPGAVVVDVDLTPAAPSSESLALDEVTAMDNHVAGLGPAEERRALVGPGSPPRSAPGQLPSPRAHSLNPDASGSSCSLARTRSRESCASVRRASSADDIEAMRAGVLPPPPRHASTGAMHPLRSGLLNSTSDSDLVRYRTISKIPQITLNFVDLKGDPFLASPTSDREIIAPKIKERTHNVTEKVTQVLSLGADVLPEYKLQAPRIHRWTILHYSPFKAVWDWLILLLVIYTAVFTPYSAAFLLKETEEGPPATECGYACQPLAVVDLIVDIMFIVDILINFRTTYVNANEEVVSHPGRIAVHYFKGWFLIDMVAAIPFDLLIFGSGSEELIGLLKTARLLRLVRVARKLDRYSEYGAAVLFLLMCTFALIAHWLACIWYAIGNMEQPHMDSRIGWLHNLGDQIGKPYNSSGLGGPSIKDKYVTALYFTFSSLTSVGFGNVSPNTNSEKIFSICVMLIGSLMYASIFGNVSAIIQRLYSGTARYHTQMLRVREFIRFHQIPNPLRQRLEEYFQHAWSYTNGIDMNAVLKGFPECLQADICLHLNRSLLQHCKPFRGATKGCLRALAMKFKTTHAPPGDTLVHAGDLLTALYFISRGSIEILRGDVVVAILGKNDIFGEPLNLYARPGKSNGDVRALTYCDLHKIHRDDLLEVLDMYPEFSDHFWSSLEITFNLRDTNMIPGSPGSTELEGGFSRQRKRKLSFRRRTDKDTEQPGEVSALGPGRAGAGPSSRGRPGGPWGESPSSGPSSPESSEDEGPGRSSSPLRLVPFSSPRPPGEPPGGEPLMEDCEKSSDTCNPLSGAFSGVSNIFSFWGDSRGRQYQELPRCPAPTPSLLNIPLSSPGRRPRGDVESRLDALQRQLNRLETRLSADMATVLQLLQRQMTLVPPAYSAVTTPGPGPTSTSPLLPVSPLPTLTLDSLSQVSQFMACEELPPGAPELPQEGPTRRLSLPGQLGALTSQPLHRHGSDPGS
row,Structure (SMILES),"hERG current change (%, negative = inhibition) at 1uM"
1,Cc1ccc(OCCN2CCNCC2)c([N+](=O)[O-])c1.O=C(O)C(=O)O,17.4%
2,O=C(NCCCNc1ccc(C(F)(F)F)cc1[N+](=O)[O-])c1cc(F)c(F)cc1Cl,1.62%
3,CC(C)(C)C(=O)COC(=O)c1ccc2c(c1)C(=O)N(Cc1ccco1)C2=O,5.79%
4,COc1ccc(C(=O)N2CC3(CC(c4cccc(NC(=O)CC(c5ccccc5)c5ccccc5)c4)=NO3)C[C@H]2C(N)=O)cc1 (some centres unmarked),1.05%
5,O=C(O)C/C(=C\c1cc2c(cc1Br)OCO2)c1nc2ccccc2s1,4.74%
6,COc1ccc(NC(=O)C(C)N=C2NS(=O)(=O)c3ccccc32)cc1S(N)(=O)=O (centres unmarked),0.659%
7,FC(F)Oc1ccc(NC(=S)NC2CCSc3ccccc32)cc1 (centres unmarked),8.41%
8,COc1cc(C(=O)N/C(=C\c2cn(C)c3ccccc23)C(=O)N2CCOCC2)cc(OC)c1OC,10.3%
9,COc1ccc(C2C3=C(CC(C)(C)CC3=O)Oc3ncn(CCCn4ccnc4)c(=N)c32)cc1 (centres unmarked),17.9%
10,COc1ccc(CNc2nc3ccccc3n2CCN2CCOCC2)cc1,-46.5%
11,Cc1cc(S(=O)(=O)N2CCN=C2c2ccccc2)ccc1F,13.9%
12,Fc1ccc(Sc2ccccc2CNC2=NCCN2)cc1.I,2.54%
13,COCCCNC(=O)CN(c1cccc(Cl)c1C)S(C)(=O)=O,9.42%
14,Cc1ccc(NC(=O)c2ccc3c(c2)C(=O)N(Cc2cccnc2)C3=O)c(C)c1,11.6%
15,Fc1ccc(CNC(=S)NC2CCCCC2)cc1,7.78%
16,CCc1ccccc1N1CC23C=CC(O2)C(C(=O)OC)C3C1=O (centres unmarked),10.5%
17,O=C(/C=C/c1ccccc1[N+](=O)[O-])NCCCn1ccnc1,15.1%
18,Cn1c(O)c(C=NCCN2CCOCC2)c(=O)n(C)c1=S,6.19%
19,CC(C)=C1Cc2ccccc2C1=O,11.6%

row,Structure (SMILES),"hERG current change (%, negative = inhibition) at 1uM"
1,CC(C)NS(=O)(=O)c1ccc(OCC(=O)Nc2ccc(F)cc2)cc1,5.85%
2,Cc1ccccc1-n1c(C)nc2sccc2c1=O,9.53%
3,Cc1ccc(Cn2nnc3c(=O)[nH]c(C4CCN(S(=O)(=O)/C=C/c5ccccc5)CC4)nc32)cc1,1.07%
4,O=[N+]([O-])c1ccc(Cl)cc1N1CCCC1,16.6%
5,CC1CC(C)CN(CCCCOc2ccc([N+](=O)[O-])cc2)C1.O=C(O)C(=O)O (centres unmarked),-80.3%
6,COc1ccccc1CC(=O)NNC(=O)c1cccs1,10.8%
7,COc1cc(C#N)c(NS(=O)(=O)c2ccc3[nH]c(=O)sc3c2)cc1OC,18%
8,Cn1cnc(S(=O)(=O)N2CCc3ccccc32)c1,8.42%
9,CCN(CC)C(=O)Oc1ccc2ccccc2c1Br,12.1%
10,Cc1nc2ccccc2c(=O)n1NC(=O)c1cccnc1Cl,22.1%
11,COCCCNC(=S)Nc1ccccc1[N+](=O)[O-],6%
12,Cc1ccc(-n2c(SCC(=O)N3CCCc4ccccc43)nnc2-c2cccnc2)c(C)c1,11%
13,Nn1c(SCC(=O)Nc2cc(S(=O)(=O)N3CCOCC3)ccc2Cl)nnc1-c1cccnc1,12.1%
14,Cc1ccc(NC(=S)N2CCN(C)CC2)c(C)c1,6.58%
15,CN=c1scc(-c2ccc(Br)cc2)n1C,-8.31%
16,COC(=O)c1cc(Cn2nc(C(=O)O)c3ccccc3c2=O)oc1C,14.9%
17,CC(=O)Nc1ccc(Oc2nc(C(F)(F)F)nc3ccccc23)cc1,17.8%
18,Cc1ccc(S(=O)(=O)N2CCN(C(=O)c3n[nH]c(=O)c4ccccc34)CC2)cc1,-0.915%
19,CN1CCN(S(=O)(=O)c2ccc(NC(=S)NC(=O)C(C)(C)C)cc2)CC1,-7.68%

row,Structure (SMILES),"hERG current change (%, negative = inhibition) at 1uM"
1,CCCCc1ccc(NC(=O)CSc2nc(=O)n(CCCN3CCOCC3)c3c2CCC3)cc1,-10.3%
2,C=CCOc1ccc(-c2nc3c(c(=O)[nH]c(=O)n3Cc3ccccc3)n2CCCOC)cc1,15.8%
3,Cc1ccccc1/C=N/NC(=O)c1sccc1C,13.2%
4,CCCCN(C)CC(O)Cn1cc(/C=C/C(=O)c2ccc(C)cc2)c2ccccc21 (centres unmarked),6.55%
5,COc1ccc(/C(C)=N\NC(=O)c2ccc(-c3ccccc3)cc2)c(F)c1,7.33%
6,S=C(NCc1cccs1)Nc1ccc(Cl)cc1,15.2%
7,O=C(Nc1cccc(C(F)(F)F)c1)C(Sc1n[nH]c(=O)[nH]c1=O)c1ccccc1 (centres unmarked),-3.37%
8,CC(=O)N1CCN(C(=O)C2(NC(=O)Nc3ccc(C)cc3)CCCCC2)CC1,16.3%
9,COc1cc(C(=O)O[C@H]2C/C(C)=C/CC[C@]3(C)O[C@@H]3C(O)C2C(C)C)cc(OC)c1OC (some centres unmarked),12.4%
10,COC(=O)[C@@H](Cc1c[nH]c2ccccc12)NC(=O)CCC(=O)c1ccc(F)cc1,15.7%
11,CCOc1ccc(C(C)NC(=O)c2cc(=O)[nH]c3ccccc23)cc1OCC (centres unmarked),17.2%
12,CCc1noc(C)c1C(=O)Nc1nc(-c2cc(C)ccc2C)c(C)s1,7.7%
13,COc1cccc(CN2CCNC(=O)C2CC(=O)NCCn2nc(C)cc2C)c1OC (centres unmarked),14.2%
14,Nc1ccc2nc(CCCCc3nc4ccccc4[nH]3)[nH]c2c1,9.89%
15,COc1cccc(CNc2nc3nc(C)cc(=O)n3[nH]2)c1,-7.15%
16,c1ccc(NC2=NCCCCS2)cc1,-9.85%
17,C=CCn1c(SCC(=O)Nc2cc(C)on2)nc2c([nH]c3ccccc32)c1=O,6.04%
18,COc1ccc(S(=O)(=O)N(C)C)cc1NC(=O)CSc1nncs1,14%
